Test results from patent US9982045B2, “Anti-CDH6 antibody drug conjugates” (Novartis AG, priority 2014, dated 2018).

Tested on: OVCAR-3 ovarian xenograft
Assay: OVCAR-3 ovarian xenograft mouse model
Settings: SMCC-DM1 conjugates, single i.v. dose 10 mg/kg
Description: The anti-tumor activity of a selection of anti-CDH6 ADCs were evaluated in the OVCAR-3 ovarian xenograft model. Female NOD-scid-gamma mice were implanted subcutaneously on the right flank with 10×10^6 OVCAR-3 cells containing 50% Matrigel™ (BD Biosciences) in phosphate buffer solution (PBS). The total injection volume containing cells in suspension was 200 μl. Mice were enrolled in the study 29 days post implantation with average tumor volume of 165 mm^3. After being randomly assigned to one of seven groups (n=4/group), mice were administered a single i.v. dose of PBS (10 ml/kg), a non-target isotype control hIgG1-SMCC-DM1 (10 mg/kg), or one of five anti-CDH6-SMCC-DM1 (10 mg/kg). Tumor volumes and body weights were measured twice weekly.
The anti-tumor activity of a second selection of anti-CDH6 ADCs were evaluated in the OVCAR-3 ovarian xenograft model. […] Tumor volumes and body weights were measured twice weekly.
The anti-tumor activity of a selection of anti-CDH6 ADCs were evaluated in the OVCAR-3 ovarian xenograft model. […] Tumor volumes and body weights were measured 1-2 times weekly.
Female NOD-scid-gamma mice were implanted subcutaneously on the right flank with 10×10^6 OVCAR-3 cells containing 50% Matrigel™ (BD Biosciences, San Jose, Calif.) in PBS. […] Tumor volumes and body weights were measured 1-2 times weekly. […]

B1: NOV0690: anti-CDH6 human IgG1 from HuCAL PLATINUM phage display; sequence in Table 5 (antibody)
heavy: QVQLLESGGGLVQPGGSLRLSCAASGFTFSDHAIDWVRQAPGKGLEWVSVIAGDGSITYYADSVKGRFTISRDNSKNTLYLQMNSLRAEDTAVYYCARDTGVYREYMDVWGQGTLVTVSSASTKGPSVFPLAPSSKSTSGGTAALGCLVKDYFPEPVTVSWNSGALTSGVHTFPAVLQSSGLYSLSSVVTVPSSSLGTQTYICNVNHKPSNTKVDKRV[sequence of human IgG1 Fc not given]
VL: DIELTQPPSVSVSPGQTASITCSGDAIGTKFAHWYQQKPGQAPVLVIYYDHERPSGIPERFSGSNSGNTATLTISGTQAEDEADYYCYSRASSNLVFGGGTKLTVL
modifications: light chain constant region
- Anti-tumor activity (tumor growth): response comparable to that of NOV0712-SMCC-DM1
